Source: PubChem BioAssay AID1345082 (National Center for Advancing Translational Sciences (NCATS), 2018)
Hit rate of the full screen: of about 94,000 compounds, about 4,000 (4.3%) were called active. Inconclusive results, whose numbers are uncertain, are shown with a selection of clear calls. Calls come from the whole dose curve; as a rule, active = well fitted inhibition curve with a large enough effect; inconclusive = small, poorly fitted or top-dose-only effect; inactive = no such curve, though single readings can be large or run the other way. Potencies beside an inconclusive call are fits to weak or partial responses and may not hold up.

test: Cytotoxic Profiling in NIH 3T3 Cell Line of Diverse Libraries Using Quantitative High-Throughput Screening; settings: NIH 3T3 viability, CellTiter-Glo ATP luminescence, 48-72 h; series mostly up to 96.7 µM; note: nearly all actives have a fitted effect of over 55% in size
Outline: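 Luminescent ATP readout (CellTiter-Glo, 10 min RT) after 48 or 72 hr compound exposure of NIH 3T3 cells seeded at 400 cells/well in 1536-well format; quantitative HTS.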
Potency is the fitted concentration of half-maximal effect; tags give direction and shape of the fitted curve.

| Structure (SMILES) | Potency |
| --- | --- |
| Cc1nn(-c2ccccc2)c2c1C(C)N(C1CCN(C(=O)NC(C)C)C1)C2=O (stereo unspecified) | inconclusive: 50.1 µM [inhibitor, partial curve, poor fit] |
| Cc1cccc(CC(=O)N2CCC(n3cc(-c4nc(-c5ccccc5)no4)nn3)C2)c1 (stereo unspecified) | inconclusive: 44.7 µM [inhibitor, partial curve, poor fit] |
| Cn1ncc2c(C(=O)Nc3cccc(F)c3)cc(-c3ccc(C(F)(F)F)cc3)nc21 | inactive |
| CC1(c2ccccc2)N(Cc2ccccc2)C(=O)OC12CCN(C(=O)COc1ccccc1)CC2 (stereo unspecified) | active: 28.2 µM |
| Cc1nc2cnccn2c1C(=O)NCC1CCCCC1 | inconclusive: 35.5 µM [inhibitor, full curve] |
| CN(C)C(=O)N1CCC(c2nn(-c3ccccn3)c(=O)[nH]2)CC1 | inactive |
| Cc1cc2nc(CO[C@H]3CN(C)C[C@H]3F)[nH]c2cc1C | inactive |
| COc1ccccc1NC(=O)Cn1c(C)ccc(NC(=O)Nc2ccc(C)cc2)c1=O | active: 22.4 µM |
| COC(C)(C)C(=O)N1CCN(c2nc(-c3ccccc3)nc3c2CCC3)CC1 | inactive |
| O=C1CN(C(=O)CCC(=O)N2CCCC(Cc3nncn3Cc3ccccc3)C2)c2ccccc2N1 (stereo unspecified) | inactive |
| Cc1noc(-c2ccn3c(CNC(=O)C(C)c4ccccc4)nnc3c2)n1 (stereo unspecified) | inactive |
| CC(C)C(=O)N1CCC2(CC1)OC(=O)N(Cc1ncccn1)C2(C)c1ccccc1 (stereo unspecified) | active: 89.1 µM |
| O=C(NCc1ccc(Cl)cc1)c1ccc2nnc(-c3cccnc3)n2c1 | inactive |
| CCN(CC)C(=O)C1=C(C)N=C2SC=C(CC(=O)NCC3CC3)N2C1c1ccccc1 (stereo unspecified) | inactive |
| CN(C)CCNC(=O)C[C@@H]1c2nc(NC(=O)c3ccc(C(C)(C)C)cc3)sc2C[C@@H]2[C@](C)(CO)[C@H](O)CC[C@]21C | active: 25.1 µM |
| COC(=O)[C@H](NC(=O)[C@@H]1[C@@H](NC(=O)Nc2cccc(SC)c2)CCN1C(=O)c1cccn1C)C(C)C | inactive |
| CN1CCN(C(=O)C2CCCN(c3nc4ncccc4o3)C2)CC1 (stereo unspecified) | inactive |
| CC1Oc2ccc(NC(=O)c3c(F)cccc3F)cc2CN(Cc2cc(F)cc(F)c2)C1=O (stereo unspecified) | inconclusive: 31.6 µM [inhibitor, full curve, poor fit] |
| Cc1cc(C)c(CNC(=O)c2nc(-c3ccnn3C)cc3c2ccn3C(C)C)c(=O)[nH]1 | active: 89.1 µM |
| c1cnc(N2CCOCC2)c(CNCc2ccc(C3CCCCO3)o2)c1 (stereo unspecified) | inactive |
| Cc1cccc(C(=O)Nc2cccc(C3OC(=O)N(Cc4ccccc4)C3C(=O)N3CCOCC3)c2)c1 (stereo unspecified) | inconclusive: 31.6 µM [inhibitor, partial curve, poor fit] |
| COc1ccc(-c2cc(CC3(NCc4ccccc4)COC3)no2)cc1 | inconclusive: 112 µM [inhibitor, single point] |
| Cc1cnc(CC2CCN(C(=O)NC(C)(C)C)CC2)n1Cc1ccc(F)cc1 | inactive |

| Structure (SMILES) | Potency |
| --- | --- |
| Cc1ccc(-n2c(C3CCN(C(=O)c4ccc(C)nc4)CC3)n[nH]c2=O)cc1 | active: 25.1 µM |
| Cc1ccc(C(=O)N2CCC3(CC2)CC(=O)Nc2ccccc2O3)cc1 | inactive |
| Cc1nccc(N2CCN(C(=O)N3CCOCC3)CC(C(=O)O)C2)n1 (stereo unspecified) | inactive |
| CC1(COc2ccc3[nH]ccc3c2)COc2ccc(C(=O)N3CC(O)C3)cc2N1 (stereo unspecified) | inconclusive: 89.1 µM [inhibitor, partial curve] |
| COC(=O)[C@H](Cc1ccccc1)NC1CCN(c2cccc(NC(=O)CC3CCCC3)c2)CC1 | inconclusive: 50.1 µM [inhibitor, partial curve, poor fit] |
| Cc1ccc(C2Cn3nnc(C(=O)NC4CCCCC4)c3CO2)cc1 (stereo unspecified) | inconclusive: 50.1 µM [inhibitor, partial curve, poor fit] |
| c1ccc(CNc2ncc(-c3ccc(N4CCOCC4)cc3)c3c2OCC3)cc1 | inconclusive: 28.2 µM [inhibitor, full curve] |
| O=C(C[C@@H]1CCNC[C@@H]1Cc1cc(-c2ccccc2)on1)NCc1ccc(F)cc1 | active: 39.8 µM |
| C[C@@]12CO[C@@H](Cc3ccccc3)O[C@@H]1CC[C@]1(C)C2CC[C@@H](O)[C@H]1CC(=O)NCc1cc(F)cc(F)c1 (stereo partly specified) | active: 39.8 µM |
| CCOCc1nc(C2CCCN(C(=O)c3cccc(OC)c3)C2)no1 (stereo unspecified) | inactive |
| CC(C)c1ccc(Nc2n[nH]c(C(O)C3CC3)n2)cc1 (stereo unspecified) | inconclusive: 112 µM [inhibitor, partial curve, poor fit] |
| CC(C)CNC(=O)c1nc2sccn2c1-c1ccc(C(F)(F)F)cc1 | inconclusive: 39.8 µM [inhibitor, partial curve] |
| Cc1ccc(C2Cn3nnc(C(=O)Nc4ccc(F)c(Cl)c4)c3CO2)cc1 (stereo unspecified) | inconclusive: 50.1 µM [inhibitor, partial curve, poor fit] |
| CN(Cc1cccnc1)c1nc2c(c(=O)[nH]1)CCN(Cc1ccccc1F)CC2 | inconclusive: 35.5 µM [inhibitor, partial curve] |
| Cn1cc(CN2CCCC(CCc3cccc(C(F)(F)F)c3)C2)cn1 (stereo unspecified) | inconclusive: 89.1 µM [inhibitor, single point] |
| COc1cccc(N2C(=O)NC(=NC3CCCCC3)C23CCCN(CC2CC2)C3)c1 (stereo unspecified) | inconclusive: 50.1 µM [inhibitor, partial curve, poor fit] |
| Fc1cc(Nc2ncc(-c3ccccc3)c3c2OCC3)cc(N2CCOCC2)c1 | inconclusive: 31.6 µM [inhibitor, full curve] |
| O=C(NCCc1noc(-c2ccncc2)n1)C1CCCO1 (stereo unspecified) | inactive |
| CCOc1ccccc1NC(=O)Cn1c(=O)c(-c2noc(CC)n2)c2n(c1=O)CCCC2 | inactive |
| COCCn1c(=O)c(C(=O)N2CCN(C(=O)c3ccc(Cl)nc3)CC2)nc2cccnc21 | inactive |
| COc1ccc(NC(=O)Cn2c(-c3ccc(Cl)cc3)nc(C)c(CCO)c2=O)cc1OC | inactive |
| CCS(=O)(=O)N1CCOCCNC(=O)[C@H]2CCCC[C@H]21 | inactive |
| Cc1nc(-c2ccccc2)n(Cc2ccc(F)cc2F)c(=O)c1CCO | inconclusive: 50.1 µM [inhibitor, partial curve, poor fit] |
